{"source": "PubChem BioAssay AID1631", "about": "(National Center for Advancing Translational Sciences (NCATS), 2009)", "note": "Hit rate of the full screen: of about 260,000 compounds, about 890 (0.34%) were called active. The inconclusive results got no clear call from the source; some entries with a clear call stand among them for comparison. Calls follow the shape of the dose curve; as a rule, active = well fitted activation curve with a large enough effect; inconclusive = small, poorly fitted or top-dose-only effect; inactive = no such curve, though single readings can be large or run the other way. No potency is given beside an inconclusive call; the fits are too rough. Potency is read from the fitted curve at half-maximal effect; tags tell the direction and shape of the fitted curve.", "data": [{"target": "Pyruvate kinase PKM (Homo sapiens) (UniProt P14618)", "sequence (P14618 whole entry, looked up, canonical isoform)": "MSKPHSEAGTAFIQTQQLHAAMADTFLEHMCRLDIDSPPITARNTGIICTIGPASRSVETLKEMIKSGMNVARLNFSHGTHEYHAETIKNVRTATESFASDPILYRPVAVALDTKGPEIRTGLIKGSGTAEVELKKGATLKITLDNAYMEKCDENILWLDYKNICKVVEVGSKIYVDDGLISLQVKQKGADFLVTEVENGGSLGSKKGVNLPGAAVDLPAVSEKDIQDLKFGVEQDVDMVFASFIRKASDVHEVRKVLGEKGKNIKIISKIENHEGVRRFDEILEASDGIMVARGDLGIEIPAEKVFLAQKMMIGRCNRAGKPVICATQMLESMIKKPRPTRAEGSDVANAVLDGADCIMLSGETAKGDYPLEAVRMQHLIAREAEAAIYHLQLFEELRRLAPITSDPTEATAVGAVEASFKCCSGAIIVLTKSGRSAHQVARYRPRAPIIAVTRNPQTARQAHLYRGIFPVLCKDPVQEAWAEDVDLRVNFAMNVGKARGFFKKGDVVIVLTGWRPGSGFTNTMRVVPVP", "experiment": "qHTS Assay for Activators of Human Muscle isoform 2 Pyruvate Kinase; also: nearly all actives have a fitted effect of over 55% in size", "conditions": "purified PKM2, Kinase-Glo ATP luminescence; Potency: activation; activation: at 57.5 µM (top of the series), 0% is enzyme alone, no compound", "how_it_was_run": "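ATP formation by purified human PK-M2, quantified via coupled luciferase luminescence after 1 h at room temperature with 0.1 mM ADP and 0.5 mM PEP final.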", "values": [{"compound": "CCCc1c(C)c2ccc(OCC(C)=O)cc2oc1=O", "Potency": "inactive"}, {"compound": "O=C(c1ccccc1)c1ccccc1N1C(=O)C=CC1=O", "Potency": "inconclusive [rising, single point]"}, {"compound": "COc1ccc(OCc2nn3c(Cn4cnc5ccccc54)nnc3s2)cc1", "Potency": "active: 25.1 µM"}, {"compound": "Cc1ccc(/C=C2/C(=O)N(c3ccccc3)C(=S)N2C)o1", "Potency": "inconclusive [rising, full curve]"}, {"compound": "Cc1ccc(NC(=O)CSCc2nc3c(nnn3Cc3ccc(F)cc3)c(=O)[nH]2)c(C)c1", "Potency": "inconclusive [rising, single point]"}, {"compound": "C=CC(=O)c1ccc2ccccc2c1", "Potency": "active: 10 µM"}, {"compound": "COc1cc(NC(=O)c2ccccc2-c2ccccc2)cc(OC)c1OC", "Potency": "inactive"}, {"compound": "N#C/C(=C\\Nc1ccc2c(c1)OCCO2)c1nc(-c2ccccc2)cs1", "Potency": "inactive"}, {"compound": "Cc1ccc(/C=C/C2=Cc3c(sc(NC(=O)CSc4n[nH]c(N)n4)c3C#N)C(C)(C)C2)o1", "Potency": "active: 4.47 µM"}, {"compound": "O=S(=O)(c1cccs1)N1CN(Cc2ccco2)c2nc3ccccc3nc21", "Potency": "inconclusive [rising, single point]"}, {"compound": "O=c1[nH]c2cc3c(cc2cc1CN(CCc1ccccc1)Cc1nnnn1CC1CCCO1)OCO3", "note": "(configuration not stated)", "Potency": "inactive"}, {"compound": "O=C1/C(=N/n2cnnc2)c2ccccc2N1Cc1ccccc1", "Potency": "inconclusive [rising, single point]"}, {"compound": "O=C(c1ccco1)N(CCC(c1ccccc1)c1ccco1)Cc1ccco1", "note": "(configuration not stated)", "Potency": "inconclusive [rising, single point]"}, {"compound": "COc1cccc(C(=O)N2CCN(Cc3cn[nH]c3-c3ccc(F)cc3F)CC2)c1", "Potency": "inactive"}, {"compound": "c1ccc(CSc2nnc3c4ccccc4c4ccccc4c3n2)cc1", "Potency": "inactive"}, {"compound": "Cc1cc(Cl)ccc1OCC(=O)Nc1ccccc1N1CCOCC1", "Potency": "inactive"}, {"compound": "Cc1c(NC(=S)N/N=C/C=C/c2ccccc2)c(=O)n(-c2ccccc2)n1C", "Potency": "inconclusive [rising, partial curve, poor fit]"}, {"compound": "O=C(OC(C(=O)NCc1ccc2c(c1)OCO2)c1ccccc1F)c1ccco1", "note": "(configuration not stated)", "Potency": "inconclusive [rising, partial curve]"}, {"compound": "Cc1ccc(C(=O)Oc2ccc([N+](=O)[O-])cc2)cc1S(=O)(=O)N1CCCCCC1", "Potency": "inactive"}, {"compound": "Cn1c(CNC(=O)c2ccccc2F)nnc1SCC(=O)NCc1ccccc1", "Potency": "inconclusive [rising, single point]"}, {"compound": "CCCCn1c(N)c(N(CCOC)C(=O)C2CCN(S(=O)(=O)c3ccc(Cl)cc3)CC2)c(=O)[nH]c1=O", "Potency": "inactive"}, {"compound": "Nc1cccc2c1C(=O)N(C(=O)/C=C/c1cccc(Br)c1)C2=O", "Potency": "inactive"}]}]}
